The sequences are guide strands of siRNAs; only the seed at positions 2 to 7 varies.
Columns and labels:
GL261 = experiment: cell viability relative to siNT1 (ATP content); H4 human neuroglioma and GL261 mouse glioma; higher = less toxic; conditions: siRNA concentration 25 nM; 96 h; mouse
H4 = experiment: as above; conditions: siRNA concentration 10 nM; 96 h; human
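Note: cells reverse transfected with siRNA duplexes via lipid reagent, ATP read by luminescence, triplicate wells, values scaled to mean viability with non-targeting control siNT1.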

Row | Sequence | cell viability (GL261) | cell viability (H4)
1 | UUCCCGCACAUGUAAACCA | 30.6% | 50%
2 | UUCCCGGACAUGUAAACCA | 54.8% | 67.4%
3 | UUCCCGUACAUGUAAACCA | 56.8% | 94%
4 | UUCCCUAACAUGUAAACCA | 65.9% | 120%
5 | UUCCCUCACAUGUAAACCA | 37.2% | 73.9%
6 | UUCCCUGACAUGUAAACCA | 56.1% | 89.9%
7 | UUCCCUUACAUGUAAACCA | 73.3% | 90.3%
8 | UUCCGAAACAUGUAAACCA | 63% | 83.5%
9 | UUCCGACACAUGUAAACCA | 39.2% | 90.6%
10 | UUCCGAGACAUGUAAACCA | 55.2% | 110%
11 | UUCCGAUACAUGUAAACCA | 54.9% | 88.7%
12 | UUCCGCAACAUGUAAACCA | 44.6% | 114%
13 | UUCCGCCACAUGUAAACCA | 20.6% | 77.5%
14 | UUCCGCGACAUGUAAACCA | 51.3% | 94.5%
15 | UUCCGCUACAUGUAAACCA | 32.3% | 69%
16 | UUCCGGAACAUGUAAACCA | 50.8% | 86.6%
17 | UUCCGGCACAUGUAAACCA | 17.4% | 44.4%
18 | UUCCGGGACAUGUAAACCA | 27.9% | 100%
19 | UUCCGGUACAUGUAAACCA | 34.2% | 40.8%
20 | UUCCGUAACAUGUAAACCA | 51.6% | 93.9%
21 | UUCCGUCACAUGUAAACCA | 32.9% | 99%
22 | UUCCGUGACAUGUAAACCA | 57.2% | 81.6%
23 | UUCCGUUACAUGUAAACCA | 28.7% | 110%
24 | UUCCUAAACAUGUAAACCA | 51.6% | 118%

Row | Sequence | cell viability (GL261) | cell viability (H4)
25 | UUCCUACACAUGUAAACCA | 29.4% | 102%
26 | UUCCUAGACAUGUAAACCA | 35% | 79.7%
27 | UUCCUAUACAUGUAAACCA | 26.4% | 97.3%
28 | UUCCUCAACAUGUAAACCA | 42.1% | 85.3%
29 | UUCCUCCACAUGUAAACCA | 31.5% | 43.3%
30 | UUCCUCGACAUGUAAACCA | 49.1% | 104%
31 | UUCCUCUACAUGUAAACCA | 30.2% | 63.3%
32 | UUCCUGAACAUGUAAACCA | 42.5% | 107%
33 | UUCCUGCACAUGUAAACCA | 11.4% | 51.9%
34 | UUCCUGGACAUGUAAACCA | 21.6% | 76.9%
35 | UUCCUGUACAUGUAAACCA | 15.2% | 41.2%
36 | UUCCUUAACAUGUAAACCA | 53.1% | 110%
37 | UUCCUUCACAUGUAAACCA | 19.2% | 51.5%
38 | UUCCUUGACAUGUAAACCA | 37.9% | 118%
39 | UUCCUUUACAUGUAAACCA | 42.6% | 96.8%
40 | UUCGAAAACAUGUAAACCA | 73.6% | 83.9%
41 | UUCGAACACAUGUAAACCA | 72.5% | 90.2%
42 | UUCGAAGACAUGUAAACCA | 70.7% | 77.7%
43 | UUCGAAUACAUGUAAACCA | 76.8% | 85.4%
44 | UUCGACAACAUGUAAACCA | 61.1% | 91.7%
45 | UUCGACCACAUGUAAACCA | 35.6% | 93.4%
46 | UUCGACGACAUGUAAACCA | 58.1% | 91%
47 | UUCGACUACAUGUAAACCA | 53.7% | 60.8%
48 | UUCGAGAACAUGUAAACCA | 51.1% | 106%

Row | Sequence | cell viability (GL261) | cell viability (H4)
49 | UUCGAGCACAUGUAAACCA | 57.2% | 17.1%
50 | UUCGAGGACAUGUAAACCA | 45.7% | 99.8%
51 | UUCGAGUACAUGUAAACCA | 38.8% | 103%
52 | UUCGAUAACAUGUAAACCA | 57.4% | 108%
53 | UUCGAUCACAUGUAAACCA | 59.5% | 79.9%
54 | UUCGAUGACAUGUAAACCA | 61.3% | 108%
55 | UUCGAUUACAUGUAAACCA | 69.8% | 79.1%
56 | UUCGCAAACAUGUAAACCA | 47.2% | 109%
57 | UUCGCACACAUGUAAACCA | 48.3% | 83.3%
58 | UUCGCAGACAUGUAAACCA | 37.5% | 118%
59 | UUCGCAUACAUGUAAACCA | 44% | 81.1%
60 | UUCGCCAACAUGUAAACCA | 46.5% | 99.2%
61 | UUCGCCCACAUGUAAACCA | 53.4% | 72%
62 | UUCGCCGACAUGUAAACCA | 67.8% | 112%
63 | UUCGCCUACAUGUAAACCA | 26.7% | 86.9%
64 | UUCGCGAACAUGUAAACCA | 66.7% | 119%
65 | UUCGCGCACAUGUAAACCA | 23.9% | 107%
66 | UUCGCGGACAUGUAAACCA | 56.5% | 116%
67 | UUCGCGUACAUGUAAACCA | 66.8% | 112%
68 | UUCGCUAACAUGUAAACCA | 71.6% | 91.8%
69 | UUCGCUCACAUGUAAACCA | 46.3% | 115%
70 | UUCGCUGACAUGUAAACCA | 66.4% | 118%
71 | UUCGCUUACAUGUAAACCA | 54.6% | 102%
72 | UUCGGAAACAUGUAAACCA | 69% | 93.1%

Row | Sequence | cell viability (GL261) | cell viability (H4)
73 | UUCGGACACAUGUAAACCA | 11.9% | 51%
74 | UUCGGAGACAUGUAAACCA | 39.6% | 95.5%
75 | UUCGGAUACAUGUAAACCA | 53.1% | 84.4%
76 | UUCGGCAACAUGUAAACCA | 44.9% | 106%
77 | UUCGGCCACAUGUAAACCA | 28.3% | 70.1%
78 | UUCGGCGACAUGUAAACCA | 37.4% | 97.8%
79 | UUCGGCUACAUGUAAACCA | 42.1% | 65.7%
80 | UUCGGGAACAUGUAAACCA | 84.6% | 103%
81 | UUCGGGCACAUGUAAACCA | 12.3% | 31.2%
82 | UUCGGGGACAUGUAAACCA | 57% | 38.8%
83 | UUCGGGUACAUGUAAACCA | 25.3% | 46.8%
84 | UUCGGUAACAUGUAAACCA | 48.4% | 95.4%
85 | UUCGGUCACAUGUAAACCA | 37.4% | 51%
86 | UUCGGUGACAUGUAAACCA | 61.5% | 102%
87 | UUCGGUUACAUGUAAACCA | 26.5% | 85.6%
88 | UUCGUAAACAUGUAAACCA | 48.6% | 92.6%
89 | UUCGUACACAUGUAAACCA | 56.3% | 78%
90 | UUCGUAGACAUGUAAACCA | 71% | 113%
91 | UUCGUAUACAUGUAAACCA | 28.3% | 83.6%
92 | UUCGUCAACAUGUAAACCA | 71.6% | 115%
93 | UUCGUCCACAUGUAAACCA | 46.5% | 67.5%
94 | UUCGUCGACAUGUAAACCA | 85.3% | 110%
95 | UUCGUCUACAUGUAAACCA | 35.4% | 96.7%
96 | UUCGUGAACAUGUAAACCA | 66.4% | 94.7%

Row | Sequence | cell viability (GL261) | cell viability (H4)
97 | UUCGUGCACAUGUAAACCA | 26.6% | 20.4%
98 | UUCGUGGACAUGUAAACCA | 44.1% | 68.6%
99 | UUCGUGUACAUGUAAACCA | 42.1% | 122%
100 | UUCGUUAACAUGUAAACCA | 68.6% | 105%
101 | UUCGUUCACAUGUAAACCA | 30% | 91.9%
102 | UUCGUUGACAUGUAAACCA | 49.9% | 102%
103 | UUCGUUUACAUGUAAACCA | 39.9% | 93.2%
104 | UUCUAAAACAUGUAAACCA | 68.1% | 96.4%
105 | UUCUAACACAUGUAAACCA | 53.8% | 78.9%
106 | UUCUAAGACAUGUAAACCA | 61.4% | 101%
107 | UUCUAAUACAUGUAAACCA | 50.2% | 103%
108 | UUCUACAACAUGUAAACCA | 65.7% | 93.1%
109 | UUCUACCACAUGUAAACCA | 30.1% | 26.2%
110 | UUCUACGACAUGUAAACCA | 75.8% | 87.4%
111 | UUCUACUACAUGUAAACCA | 26.3% | 62.1%
112 | UUCUAGAACAUGUAAACCA | 59.9% | 102%
113 | UUCUAGCACAUGUAAACCA | 17.9% | 42.5%
114 | UUCUAGGACAUGUAAACCA | 35% | 62.1%
115 | UUCUAGUACAUGUAAACCA | 36.2% | 56.1%
116 | UUCUAUAACAUGUAAACCA | 56% | 75%
117 | UUCUAUCACAUGUAAACCA | 42% | 66.6%
118 | UUCUAUGACAUGUAAACCA | 51.1% | 105%
